Our source for the AC50 values is PubChem BioAssay (NCATS).

The other results are listed elsewhere or left out. The main result of the screen is listed elsewhere. These columns were measured beside it and carry no call. Potencies come from curve fits of mixed quality, noted in brackets.

The nature of this assay: qHTS drug screen for cell cycle checkpoint inhibitors in PARPi-resistant BRCA-mutant ovarian cancer cell lines. (AID 1963452). Particulars: PEO1/OlaR viability, CellTiter-Glo luminescence, 96 h. The procedure, abridged: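 PEO1, PEO4 and PEO1/OlaR ovarian cancer cells, 600 per well, exposed 96 h at 37C to a dilution series. Viability read by CellTiter-Glo luminescence, normalized to DMSO and empty wells; activity summarized as Z-AUC.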

Where [1] appears, read: measured here: PEO1 parental viability.
Tags give direction and shape of the fitted curve.

As for `CC(C)c1c(C(=O)Nc2ccccc2)c(-c2ccccc2)c(-c2ccc(F)cc2)n1CC[C@@H](O)C[C@@H](O)CC(=O)O`, the AC50 under setting [1] is 13.4 µM [falling, single point] and the AC50 (measured here: PEO4 viability) was 5.35 µM [falling, partial curve, poor fit].
On to `Cc1nc2ccc(-n3ncc(C(=O)c4cc5ccccc5[nH]4)c3N)cc2[nH]1`, for which the AC50 was 6.16 µM [falling, partial curve] under setting [1] and 12.3 µM [falling, partial curve, poor fit] (measured here: PEO4 viability).
Turning to `CC(C)Nc1cc(-c2c[nH]c(C(=O)N[C@H](CO)c3cccc(Cl)c3)c2)c(Cl)cn1`, the AC50 was 1.95 µM [falling, full curve] under setting [1] and 2.19 µM [falling, full curve] (measured here: PEO4 viability).
For the compound `Cc1cnc(Nc2ccc(F)cc2Cl)nc1-c1c[nH]c(C(=O)NC(CO)c2cccc(Cl)c2)c1` (centres undefined), the AC50 is 6.16 µM [falling, partial curve, poor fit] under setting [1] and 4.36 µM [falling, full curve] (measured here: PEO4 viability).
On to `CN(Cc1ccc(/C=C/C(=O)NO)cc1)CC12CC3CC(CC(C3)C1)C2`, for which the AC50 under setting [1] is 1.23 µM [falling, full curve] and the AC50 (measured here: PEO4 viability) was 0.616 µM [falling, full curve].
Take `CCN(C)S(=O)(=O)Nc1ccc(F)c(C(=O)c2c[nH]c3ncc(-c4cnc(C5CC5)nc4)cc23)c1F`: the AC50 reads like this: under setting [1], 13.8 µM [falling, single point]; (measured here: PEO4 viability) 24.5 µM [falling, single point].
As for `c1ccc2c(-c3cnn4cc(-c5ccc(OCCN6CCOCC6)cc5)cnc34)ccnc2c1`, the AC50 is 1.2 µM [falling, full curve] under setting [1] and 8.48 µM [falling, partial curve] (measured here: PEO4 viability).

Broadly, the AC50 is the concentration at which the activity in the assay is half-maximal.
